From patent US20020133846A1, “Method for protecting plants” (priority 1996, published 2002)

Test system: Pseudomonas syringae DC3000
Experiment: Infection with Pseudomonas syringae DC3000 in Arabidopsis, Example 17
Conditions: day 0 or day 2
Description: In addition to resistance to the fungal pathogen P. parasitica, cim3 was also resistant to infection with the bacterial pathogen Pseudomonas syringae DC3000. Six-week-old wild-type (±INA treatment), and cim3 plants were inoculated with a suspension of P. syringae DC3000 and the progress of the disease was followed by monitoring the growth of the bacteria extracted from infected leaves over time. […] However, by day four, there was a 31-fold decrease in bacterial growth between wild-type and cim3 plants (P<0.003; Sokal and Rohlf, 1981). The plants were also visually inspected for disease symptoms. Leaves from wild-type plants were severely chlorotic with disease symptoms spreading well beyond the initial zone of injection.
For this example, cultures of Pseudomonas syringae pv. tomato strain DC3000 were grown on King's B media (agar plates or liquid) plus rifampicin (50 jig/ml) at 28° C. (Walen et al. (1991) Plant Cell 3, 49-59). An overnight culture was diluted and resuspended in 10 mM MgCT2 to a density of 2-5×10^5 cells per ml and injected into Arabidopsis leaves. […] Bacterial colonies were counted and the data were subjected to Student's t statistical analysis (Sokal and Rohlf (1981), Biometry, 2nd ed. New York: W.H. Freeman and Company). […]

## O=C(O)c1cc(Cl)nc(Cl)c1 [INA, 2,6-dichloroisonicotinic acid]
  difference in bacterial titers between Col-O, Col-O + INA and cim3: not statistically significant
